Source: article PMC4336329 (PLoS ONE, 2015)
Among all 310,000 compounds or so, about 14,000 (4.5%) showed an effect of 50% or more. Effects have a minus sign here. This is one part of the list.

Target: human ether-à-go-go-related gene (hERG) potassium channel (human, UniProt Q12809)
Experiment: primary screen, population patch clamp on CHO cells stably expressing hERG
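Note: peak tail current of the secondary pulse compared with the same well before compound.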

human ether-à-go-go-related gene (hERG) potassium channel, sequence (Q12809 whole entry, looked up): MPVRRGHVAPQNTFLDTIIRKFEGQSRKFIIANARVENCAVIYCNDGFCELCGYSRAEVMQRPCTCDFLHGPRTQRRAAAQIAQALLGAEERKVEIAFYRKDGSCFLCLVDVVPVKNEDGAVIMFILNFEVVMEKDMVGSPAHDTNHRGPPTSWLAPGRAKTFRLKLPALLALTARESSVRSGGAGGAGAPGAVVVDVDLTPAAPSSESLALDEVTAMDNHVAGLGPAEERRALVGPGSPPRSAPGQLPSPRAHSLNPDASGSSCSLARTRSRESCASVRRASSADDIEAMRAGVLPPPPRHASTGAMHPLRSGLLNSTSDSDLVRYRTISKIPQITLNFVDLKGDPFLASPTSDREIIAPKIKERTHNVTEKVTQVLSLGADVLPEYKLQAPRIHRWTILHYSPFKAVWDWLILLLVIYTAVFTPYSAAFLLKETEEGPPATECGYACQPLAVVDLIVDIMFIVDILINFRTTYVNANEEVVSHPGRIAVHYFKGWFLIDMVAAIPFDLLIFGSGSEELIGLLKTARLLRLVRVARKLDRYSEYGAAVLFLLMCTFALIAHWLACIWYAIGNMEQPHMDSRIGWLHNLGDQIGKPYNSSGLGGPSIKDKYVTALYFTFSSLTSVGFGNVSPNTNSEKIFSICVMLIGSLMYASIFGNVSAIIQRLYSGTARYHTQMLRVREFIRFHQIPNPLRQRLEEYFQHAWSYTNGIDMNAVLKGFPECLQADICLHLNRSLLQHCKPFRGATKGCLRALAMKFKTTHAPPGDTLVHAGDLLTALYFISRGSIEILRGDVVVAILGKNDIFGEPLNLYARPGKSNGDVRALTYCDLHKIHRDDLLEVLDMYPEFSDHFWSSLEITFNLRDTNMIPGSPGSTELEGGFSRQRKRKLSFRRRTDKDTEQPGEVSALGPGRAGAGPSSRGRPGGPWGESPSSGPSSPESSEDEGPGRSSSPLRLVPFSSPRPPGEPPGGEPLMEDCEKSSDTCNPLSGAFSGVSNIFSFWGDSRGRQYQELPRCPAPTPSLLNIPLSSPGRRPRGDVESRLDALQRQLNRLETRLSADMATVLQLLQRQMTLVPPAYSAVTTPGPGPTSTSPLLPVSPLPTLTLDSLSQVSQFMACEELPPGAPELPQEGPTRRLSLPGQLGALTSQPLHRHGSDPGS

| SMILES | hERG current change (%, negative = inhibition) at 10uM |
| --- | --- |
| Cc1ccc(N2C(=O)CC(N3CCSCC3)C2=O)c(C)c1 (centres unmarked) | 10.2% |
| CN(Cc1nc(CC2CC2)no1)CC12CC3CC(CC(C3)C1)C2 | 0.8% |
| COC(=O)Cc1ccc(NC(=S)NCCO)cc1 | 17.6% |
| COc1cccc(-c2nnn(CCC(=O)O)n2)c1 | 4.12% |
| CCOC(=O)C1(CCCc2ccccc2)CCN(C(=O)CCc2cnn(C)c2)CC1 | -74.2% |
| O=C(NCC(c1ccco1)N1CCN(c2ccccc2)CC1)OCc1ccccc1 (centres unmarked) | -10.2% |
| Cc1nnc(SCC(=O)c2ccc(S(=O)(=O)N3CCOCC3)cc2)n1-c1ccccc1 | -20.2% |
| CCc1c(C(=O)OCc2ccccc2)[nH]c(C)c1C | 7.38% |
| NC(=O)COc1cccc(/C=N/NC(=O)c2ccc(-n3cccc3)cc2)c1 | 13.5% |
| CCOc1ccc(NC(=O)C2CCCN2C(=O)Oc2ccccc2)cc1 (centres unmarked) | 6.3% |
| COC(=O)c1ccccc1OCCN1CCCCCC1.O=C(O)C(=O)O | -46.2% |
| O=C(Nc1ccccc1Br)c1cc(=O)c2ccccc2o1 | 6.61% |
| Nc1ncc2c(n1)CCN(c1ccc([N+](=O)[O-])cc1)C2 | -43.2% |
| CC(=O)c1ccc(NC(=O)COC(=O)CCN2C(=O)c3cccc([N+](=O)[O-])c3C2=O)cc1 | 22.1% |
| CCOc1ccc(/C(O)=C2/C(=O)C(=O)N(c3nc(C)c(C)s3)C2c2ccco2)cc1 (centres unmarked) | -1.14% |
| O=c1cc(-c2ccco2)nc(-c2cccs2)o1 | 17.4% |
| CCN(CC)CC#CCOC(c1ccccc1)c1ccccc1.Cl | -43.3% |
| CCCCn1c(=O)[nH]c(=O)c2c1nc(-c1ccsc1)n2Cc1ccccc1 | -7.65% |
| COc1cc(OC)c(OC)cc1/C=C/c1cc(C(F)(F)F)[nH]c(=O)n1 | 26.6% |

| SMILES | hERG current change (%, negative = inhibition) at 10uM |
| --- | --- |
| CCOC(=O)Cc1csc(N/N=C/c2ccc(Cl)cc2)n1 | 14.8% |
| O=C(Nc1cccc(F)c1)N1CC=C(c2ccc(Cl)cc2)CC1 | -13.8% |
| CCN(c1cccc(C)c1)S(=O)(=O)c1cn(CC(=O)OC)c2ccc([N+](=O)[O-])cc12 | 2.47% |
| O=C(COC(=O)c1ccc(Cl)c(S(=O)(=O)N2CCc3ccccc3C2)c1)Nc1ncc(Cl)cc1Cl | 3.4% |
| COc1ccc(N2CC(NC(=O)c3cccc4ccccc34)CC2=O)cc1OC (centres unmarked) | -2.85% |
| Cc1cc(Br)cc2c1N(C)C(=O)C2(c1ccc(O)cc1)c1ccc(O)cc1 | 3.46% |
| COc1cc(NC(=S)N2CCN(C)CC2)c(OC)cc1Cl | -21.4% |
| CCc1nnc(N2C(=O)c3ccccc3C2(O)c2ccccc2)s1 (centres unmarked) | -12.9% |
| NC(=O)c1c(NC(=O)CN2CCN(S(=O)(=O)c3ccccc3)CC2)sc2c1CCC2 | -43.7% |
| Cc1nc2c3cc(F)ccc3n(Cc3ccc(F)cc3)c2s1 | 13.8% |
| Cc1ccc2c(CC(=O)NCC3(N4CCOCC4)CCCCC3)coc2c1C | -25.5% |
| CC(O)[C@H]1CNC(=O)C(=O)N1CCc1cc(C(F)(F)F)cc(C(F)(F)F)c1 (some centres unmarked) | 18.9% |
| COCCCn1c(=N)c(C(=O)NCC2CCCO2)cc2c(=O)n3ccccc3nc21 (centres unmarked) | -64.3% |
| CN1CCN(C(=O)c2cc3nc(-c4ccco4)cc(C(F)(F)F)n3n2)CC1 | 8.28% |
| CC[n+]1cc(-c2ccccc2)nc(N2CCOCC2)n1.[I-] | 2.69% |
| CC1(C2CC2)NC(=O)N(CC(=O)NCc2ccc(Cl)cc2Cl)C1=O (centres unmarked) | -2.25% |
| Cc1cc2cc(CN(Cc3nnnn3C3CCCCC3)CC3CCCO3)c(=O)[nH]c2cc1C (centres unmarked) | -7.12% |
| CCOC(=O)C1CCN(C(=O)COC(=O)CCOc2ccc(C)cc2)CC1 | -4.14% |
| CCOC(=O)c1ccc2nc(C)cc(Nc3cccc(C(=O)O)c3)c2c1 | 5.41% |

| SMILES | hERG current change (%, negative = inhibition) at 10uM |
| --- | --- |
| O=C(NNc1ccc([N+](=O)[O-])cc1[N+](=O)[O-])c1ccco1 | 4.59% |
| COc1ccccc1N1CCN(C2=NS(=O)(=O)c3ccccc32)CC1 | -7.39% |
| N#Cc1ccc(C(=O)CSc2n[nH]c(=O)n2Cc2ccco2)cc1 | -45.8% |
| Cc1nc2c(-c3ccc(F)cc3)c(C)nn2c(C)c1CCC(=O)NC(C)CCc1ccco1 (centres unmarked) | -68.8% |
| CCN(CC)C(=O)c1sc(NC(=O)c2ccc(OC)c([N+](=O)[O-])c2)c(C#N)c1C | 10.4% |
| CN1CCN(NC(=O)c2cc(-c3ccc(Cl)s3)nc3ccccc23)CC1 | -21% |
| CCOC(=O)N1CCN(C(=O)Nc2cccc3ccccc23)CC1 | 27.6% |
| CC1Cc2ccccc2N1C(=S)NC(=O)C1(C)CC1(Cl)Cl (centres unmarked) | 30.1% |
| COc1ccc(/C=N/n2cnnc2)cc1Oc1nc(Cl)ncc1F | -23.2% |
| CS(=O)(=O)N(Cc1ccccc1)c1ccccc1C(=O)O | 27.9% |
| Cc1cccc(N2C(=O)c3ccc(C(=O)Nc4c[nH]c(=O)[nH]c4=O)cc3C2=O)c1 | 16.4% |
| O=S(=O)(NCc1ccccc1Cl)c1cccs1 | 10.2% |
| Cc1ccc(Oc2ccccc2/C=N/O)cc1 | -3.84% |
| CCCNC(=O)c1c(N)n(-c2ccc3c(c2)OCO3)c2nc3ccccc3nc12 | 17.9% |
| CNC(=O)CN(c1ccc(C23CC4CC(CC(C4)C2)C3)cc1)S(C)(=O)=O | 14.8% |
| Cn1c(=O)c2sccc2n2c(CCCC(=O)N3CCCCC3)nnc12 | 5.19% |
| CCN1C(=O)CC(N2CCC(C(=O)N3CCOCC3)CC2)C1=O (centres unmarked) | 7.58% |
| CN(C)C(CNC(=O)c1ccccc1C(F)(F)F)c1ccco1 (centres unmarked) | 7.83% |
